Measurements from the supplement of paper PMC8728848.
This is one part of the list.

Key:
Assay in all cases: glycan array binding signal (z-score within array); higher = stronger binding
Conditions in all cases: glycan notation: IUPAC condensed, linker removed
[1] = target: GlcNAc(b1-3)Gal(b1-3)GalNAc
In short: (§1)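 Arrays were curated from the Consortium for Functional Glycomics database, 3228 in total, and kept only where the protein sequence was available. Binding is expressed as a within-array Z-score. This score was averaged across arrays of the same protein sequence at different concentrations or buffers and across linkers, and negative values can be read as non-binding.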

[2] = target: GlcNAc(b1-3)Gal(b1-4)Glc
In short: as §1

[3] = target: GlcNAc(b1-3)Gal(b1-4)GlcNAc
In short: as §1

[4] = target: GlcNAc(b1-3)Gal(b1-4)GlcNAc(b1-2)Man(a1-3)[GlcNAc(b1-3)Gal(b1-4)GlcNAc(b1-2)Man(a1-6)]Man(b1-4)GlcNAc(b1-4)GlcNAc
In short: as §1

[5] = target: GlcNAc(b1-3)Gal(b1-4)GlcNAc(b1-2)Man(a1-3)[GlcNAc(b1-3)Gal(b1-4)GlcNAc(b1-2)Man(a1-6)]Man(b1-4)GlcNAc(b1-4)[Fuc(a1-6)]GlcNAc
In short: as §1

[6] = target: GlcNAc(b1-3)Gal(b1-4)GlcNAc(b1-2)[GlcNAc(b1-3)Gal(b1-4)GlcNAc(b1-6)]Man(a1-6)[GlcNAc(b1-3)Gal(b1-4)GlcNAc(b1-2)Man(a1-3)]Man(b1-4)GlcNAc(b1-4)GlcNAc
In short: as §1

[7] = target: GlcNAc(b1-3)Gal(b1-4)GlcNAc(b1-3)Gal(b1-4)GlcNAc
In short: as §1

[8] = target: GlcNAc(b1-3)Gal(b1-4)GlcNAc(b1-3)Gal(b1-4)GlcNAc(b1-2)Man(a1-3)[GlcNAc(b1-3)Gal(b1-4)GlcNAc(b1-3)Gal(b1-4)GlcNAc(b1-2)Man(a1-6)]Man(b1-4)GlcNAc(b1-4)GlcNAc
In short: as §1

[9] = target: GlcNAc(b1-3)Gal(b1-4)GlcNAc(b1-3)Gal(b1-4)GlcNAc(b1-2)Man(a1-3)[GlcNAc(b1-3)Gal(b1-4)GlcNAc(b1-3)Gal(b1-4)GlcNAc(b1-2)Man(a1-6)]Man(b1-4)GlcNAc(b1-4)[Fuc(a1-6)]GlcNAc
In short: as §1

[10] = target: GlcNAc(b1-3)Gal(b1-4)GlcNAc(b1-3)Gal(b1-4)GlcNAc(b1-2)[GlcNAc(b1-3)Gal(b1-4)GlcNAc(b1-3)Gal(b1-4)GlcNAc(b1-6)]Man(a1-6)[GlcNAc(b1-3)Gal(b1-4)GlcNAc(b1-3)Gal(b1-4)GlcNAc(b1-2)Man(a1-3)]Man(b1-4)GlcNAc(b1-4)[Fuc(a1-6)]GlcNAc
In short: as §1

[11] = target: GlcNAc(b1-3)Gal(b1-4)GlcNAc(b1-3)Gal(b1-4)GlcNAc(b1-3)Gal(b1-4)GlcNAc(b1-2)Man(a1-3)[GlcNAc(b1-3)Gal(b1-4)GlcNAc(b1-3)Gal(b1-4)GlcNAc(b1-3)Gal(b1-4)GlcNAc(b1-2)Man(a1-6)]Man(b1-4)GlcNAc(b1-4)GlcNAc
In short: as §1

[12] = target: GlcNAc(b1-3)Gal(b1-4)GlcNAc(b1-3)Gal(b1-4)GlcNAc(b1-3)Gal(b1-4)GlcNAc(b1-2)Man(a1-3)[GlcNAc(b1-3)Gal(b1-4)GlcNAc(b1-3)Gal(b1-4)GlcNAc(b1-3)Gal(b1-4)GlcNAc(b1-2)Man(a1-6)]Man(b1-4)GlcNAc(b1-4)[Fuc(a1-6)]GlcNAc
In short: as §1

[13] = target: GlcNAc(b1-3)Gal(b1-4)GlcNAc(b1-3)Gal(b1-4)GlcNAc(b1-3)Gal(b1-4)GlcNAc(b1-2)[GlcNAc(b1-3)Gal(b1-4)GlcNAc(b1-3)Gal(b1-4)GlcNAc(b1-3)Gal(b1-4)GlcNAc(b1-6)]Man(a1-6)[GlcNAc(b1-3)Gal(b1-4)GlcNAc(b1-3)Gal(b1-4)GlcNAc(b1-3)Gal(b1-4)GlcNAc(b1-2)Man(a1-3)]Man(b1-4)GlcNAc(b1-4)[Fuc(a1-6)]GlcNAc
In short: as §1

[14] = target: GlcNAc(b1-3)Gal(b1-4)GlcNAc(b1-3)Gal(b1-4)GlcNAc(b1-3)Gal(b1-4)GlcNAc(b1-3)Gal(b1-4)GlcNAc(b1-2)Man(a1-3)[GlcNAc(b1-3)Gal(b1-4)GlcNAc(b1-3)Gal(b1-4)GlcNAc(b1-3)Gal(b1-4)GlcNAc(b1-3)Gal(b1-4)GlcNAc(b1-2)Man(a1-6)]Man(b1-4)GlcNAc(b1-4)GlcNAc
In short: as §1

[15] = target: GlcNAc(b1-3)Gal(b1-4)GlcNAc(b1-3)Gal(b1-4)GlcNAc(b1-3)Gal(b1-4)GlcNAc(b1-3)Gal(b1-4)GlcNAc(b1-2)Man(a1-3)[GlcNAc(b1-3)Gal(b1-4)GlcNAc(b1-3)Gal(b1-4)GlcNAc(b1-3)Gal(b1-4)GlcNAc(b1-3)Gal(b1-4)GlcNAc(b1-2)Man(a1-6)]Man(b1-4)GlcNAc(b1-4)[Fuc(a1-6)]GlcNAc
In short: as §1

[16] = target: GlcNAc(b1-3)Gal(b1-4)GlcNAc(b1-3)Gal(b1-4)GlcNAc(b1-3)Gal(b1-4)GlcNAc(b1-3)Gal(b1-4)GlcNAc(b1-2)[GlcNAc(b1-3)Gal(b1-4)GlcNAc(b1-3)Gal(b1-4)GlcNAc(b1-3)Gal(b1-4)GlcNAc(b1-3)Gal(b1-4)GlcNAc(b1-6)]Man(a1-6)[GlcNAc(b1-3)Gal(b1-4)GlcNAc(b1-3)Gal(b1-4)GlcNAc(b1-3)Gal(b1-4)GlcNAc(b1-3)Gal(b1-4)GlcNAc(b1-2)Man(a1-3)]Man(b1-4)GlcNAc(b1-4)[Fuc(a1-6)]GlcNAc
In short: as §1

[17] = target: GlcNAc(b1-3)Gal(b1-4)GlcNAc(b1-3)Gal(b1-4)GlcNAc(b1-3)GalNAc
In short: as §1

[18] = target: GlcNAc(b1-3)Gal(b1-4)GlcNAc(b1-3)GalNAc
In short: as §1

[19] = target: GlcNAc(b1-3)Gal(b1-4)GlcNAc(b1-3)[GlcNAc(b1-3)Gal(b1-4)GlcNAc(b1-3)]GalNAc
In short: as §1

[20] = target: GlcNAc(b1-3)Gal(b1-4)GlcNAc(b1-6)[Gal(b1-3)]GalNAc
In short: as §1

[21] = target: GlcNAc(b1-3)Gal(b1-4)GlcNAc(b1-6)[GlcNAc(b1-3)Gal(b1-3)]GalNAc
In short: as §1

[22] = target: GlcNAc(b1-3)Gal(b1-4)GlcNAc(b1-6)[GlcNAc(b1-3)]Gal(b1-4)GlcNAc
In short: as §1

[23] = target: GlcNAc(b1-3)GalNAc
In short: as §1

[24] = target: GlcNAc(b1-3)Man
In short: as §1

[25] = target: GlcNAc(b1-3)[GlcNAc(b1-4)][GlcNAc(b1-6)]GlcNAc
In short: as §1

[26] = target: GlcNAc(b1-3)[GlcNAc(b1-6)]Gal(b1-4)GlcNAc
In short: as §1

[27] = target: GlcNAc(b1-3)[GlcNAc(b1-6)]GalNAc
In short: as §1

[28] = target: GlcNAc(b1-4)Gal(b1-4)GlcNAc
In short: as §1

[29] = target: GlcNAc(b1-4)GlcNAc
In short: as §1

[30] = target: GlcNAc(b1-4)GlcNAc(b1-4)GlcNAc
In short: as §1

[31] = target: GlcNAc(b1-4)GlcNAc(b1-4)GlcNAc(b1-4)GlcNAc(b1-4)GlcNAc
In short: as §1

[32] = target: GlcNAc(b1-4)GlcNAc(b1-4)GlcNAc(b1-4)GlcNAc(b1-4)GlcNAc(b1-4)GlcNAc
In short: as §1

[33] = target: GlcNAc(b1-4)[GlcNAc(b1-6)]GalNAc
In short: as §1

[34] = target: GlcNAc(b1-6)Gal(b1-4)GlcNAc
In short: as §1

[35] = target: GlcNAc(b1-6)GalNAc
In short: as §1

[36] = target: GlcNAc6S(b1-3)Gal(b1-4)GlcNAc
In short: as §1

[37] = target: Kdn(a2-3)Gal(b1-3)GalNAc
In short: as §1

[38] = target: Kdn(a2-3)Gal(b1-3)GlcNAc
In short: as §1

[39] = target: Kdn(a2-3)Gal(b1-4)Glc
In short: as §1

[40] = target: Kdn(a2-3)Gal(b1-4)GlcNAc
In short: as §1

[41] = target: Kdn(a2-3)Gal(b1-4)[Fuc(a1-3)]GlcNAc
In short: as §1

[42] = target: Kdn(a2-6)Gal(b1-4)GlcNAc
In short: as §1

[43] = target: Man(a1-2)Man(a1-2)Man(a1-3)Man
In short: as §1

[44] = target: Man(a1-2)Man(a1-2)Man(a1-6)[Man(a1-3)]Man
In short: as §1

[45] = target: Man(a1-2)Man(a1-3)Man
In short: as §1

B1: CpGal16 (Clavelina picta) (protein)
chain: MAKMITNYVGKRIECIMVATDMMSTVFSLASATGDLPFYINFRQRENSIVMNTRVHGKWQYEKSQSSGGMNFYEPFRLVVEVRPSVFKVTVSTMGEEDGITFNLQYSQITIKPDEIVAMHLGYCNLRSELLVTDL
glycan array binding signal (z-score) [1]: -0.336 | glycan array binding signal (z-score) [2]: -0.381 | glycan array binding signal (z-score) [3]: -0.469 | glycan array binding signal (z-score) [4]: -0.207 | glycan array binding signal (z-score) [5]: -0.048 | glycan array binding signal (z-score) [6]: 0.281 | glycan array binding signal (z-score) [7]: -0.579 | glycan array binding signal (z-score) [8]: 0.285 | glycan array binding signal (z-score) [9]: 0.179 | glycan array binding signal (z-score) [10]: 0.153 | glycan array binding signal (z-score) [11]: -0.106 | glycan array binding signal (z-score) [12]: 0.36 | glycan array binding signal (z-score) [13]: 0.058 | glycan array binding signal (z-score) [14]: 0.022 | glycan array binding signal (z-score) [15]: 0.265 | glycan array binding signal (z-score) [16]: -0.04 | glycan array binding signal (z-score) [17]: -0.237 | glycan array binding signal (z-score) [18]: -0.398 | glycan array binding signal (z-score) [19]: -0.168 | glycan array binding signal (z-score) [20]: -0.422 | glycan array binding signal (z-score) [21]: -0.395 | glycan array binding signal (z-score) [22]: -0.446 | glycan array binding signal (z-score) [23]: -0.417 | glycan array binding signal (z-score) [24]: -0.411 | glycan array binding signal (z-score) [25]: -0.373 | glycan array binding signal (z-score) [26]: -0.324 | glycan array binding signal (z-score) [27]: -0.317 | glycan array binding signal (z-score) [28]: -0.37 | glycan array binding signal (z-score) [29]: -0.371 | glycan array binding signal (z-score) [30]: -0.461 | glycan array binding signal (z-score) [31]: -0.348 | glycan array binding signal (z-score) [32]: -0.338 | glycan array binding signal (z-score) [33]: -0.406 | glycan array binding signal (z-score) [34]: -0.438 | glycan array binding signal (z-score) [35]: -0.261 | glycan array binding signal (z-score) [36]: -0.325 | glycan array binding signal (z-score) [37]: -0.316 | glycan array binding signal (z-score) [38]: -0.499 | glycan array binding signal (z-score) [39]: -0.339 | glycan array binding signal (z-score) [40]: -0.4 | glycan array binding signal (z-score) [41]: -0.259 | glycan array binding signal (z-score) [42]: -0.352 | glycan array binding signal (z-score) [43]: -0.382 | glycan array binding signal (z-score) [44]: -0.329 | glycan array binding signal (z-score) [45]: -0.333
